Paper PMC4336329 (PLoS ONE, 2015)
The whole screen tested about 310,000 compounds, of which about 14,000 (4.5%) showed an effect of 50% or more. The effect is printed as a negative number. Some of the results follow.

target: human ether-à-go-go-related gene (hERG) potassium channel (human, UniProt Q12809); assay: primary screen, population patch clamp on CHO cells stably expressing hERG
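Further: peak tail current of the secondary pulse compared with the same well before compound.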

Sequence of human ether-à-go-go-related gene (hERG) potassium channel (Q12809 whole entry, looked up): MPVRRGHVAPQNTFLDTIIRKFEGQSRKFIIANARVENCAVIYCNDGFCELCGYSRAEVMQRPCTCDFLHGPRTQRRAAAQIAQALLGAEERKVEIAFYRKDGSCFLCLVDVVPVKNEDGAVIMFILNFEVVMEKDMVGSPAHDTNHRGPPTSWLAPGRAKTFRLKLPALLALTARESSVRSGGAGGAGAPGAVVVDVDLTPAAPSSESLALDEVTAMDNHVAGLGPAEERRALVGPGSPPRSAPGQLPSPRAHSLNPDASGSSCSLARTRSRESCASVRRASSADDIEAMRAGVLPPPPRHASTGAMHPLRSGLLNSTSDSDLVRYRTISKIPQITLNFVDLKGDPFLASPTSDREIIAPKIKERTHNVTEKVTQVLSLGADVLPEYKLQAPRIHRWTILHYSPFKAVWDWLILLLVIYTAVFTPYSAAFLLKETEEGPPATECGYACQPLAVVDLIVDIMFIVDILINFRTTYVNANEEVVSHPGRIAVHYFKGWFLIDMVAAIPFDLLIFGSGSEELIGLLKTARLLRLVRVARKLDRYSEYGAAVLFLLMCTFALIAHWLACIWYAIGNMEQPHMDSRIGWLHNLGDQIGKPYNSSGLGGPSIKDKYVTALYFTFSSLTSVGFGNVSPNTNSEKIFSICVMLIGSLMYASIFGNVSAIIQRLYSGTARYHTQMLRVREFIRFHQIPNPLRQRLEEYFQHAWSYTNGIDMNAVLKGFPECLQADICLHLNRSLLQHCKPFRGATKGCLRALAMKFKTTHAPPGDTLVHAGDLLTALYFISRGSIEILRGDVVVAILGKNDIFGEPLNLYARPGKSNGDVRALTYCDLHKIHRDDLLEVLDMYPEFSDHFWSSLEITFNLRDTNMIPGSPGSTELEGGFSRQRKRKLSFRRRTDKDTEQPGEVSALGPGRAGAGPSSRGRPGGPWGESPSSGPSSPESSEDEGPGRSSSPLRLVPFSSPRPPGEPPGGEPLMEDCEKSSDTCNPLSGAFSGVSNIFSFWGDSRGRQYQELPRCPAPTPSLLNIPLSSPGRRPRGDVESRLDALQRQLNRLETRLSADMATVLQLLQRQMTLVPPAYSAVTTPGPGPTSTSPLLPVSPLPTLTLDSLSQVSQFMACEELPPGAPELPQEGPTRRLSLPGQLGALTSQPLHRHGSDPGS

| Structure (SMILES) | hERG current change (%, negative = inhibition) at 10uM |
| --- | --- |
| CNC(=S)Nc1cc(OC)c(NC(=O)c2ccco2)cc1OC | 14.9% |
| CCCOc1ccc(C(=O)NNC(=S)NC(=O)c2cccs2)cc1 | 16.7% |
| CCOC(=O)c1nn(-c2cccc(C)c2)c2nc(-c3ccccc3)c(C#N)c(=O)n12 | -10.4% |
| CC/C(=N\NC(=O)C1CCCC1)c1ccc(Br)cc1 | 26% |
| C=CCOc1ccc(/C=C2\C(=N)N3N=C(S(=O)(=O)CC)SC3=NC2=O)cc1OC | 20.4% |
| Cc1cccc(-n2ncc3c(NCc4ccco4)ncnc32)c1 | -27.5% |
| CN(C(=O)c1ccc2c(c1)OCO2)C1CCS(=O)(=O)C1 (centres unmarked) | 7.11% |
| CCc1ccc(OCC(O)CN2CCC(CN3C(=O)c4cccc5cccc(c45)C3=O)CC2)cc1.Cl (centres unmarked) | -41.1% |
| CC1=C(C(=O)OCC(C)C)C(c2ccc(F)cc2)NC(=O)N1 (centres unmarked) | 9.31% |
| CC(=O)Nc1ccc(N2C(=O)CSC2c2c(F)cccc2Cl)cc1 (centres unmarked) | -12.4% |
| CCOc1ccc(-c2nnc3ccc(SCC(=O)Nc4nc5ccccc5s4)nn23)cc1 | -3.2% |
| COc1cccc(-c2[nH]nc3c2C(c2ccoc2)C(C#N)=C(N)O3)c1 (centres unmarked) | 1.53% |
| CC(=O)N1c2ccc(S(=O)(=O)NCCc3ccccc3)cc2CC1C (centres unmarked) | -20.5% |
| COc1ccccc1NC(=O)N(c1c(N)n(Cc2ccccc2)c(=O)[nH]c1=O)C1CCCC1 | -8.66% |
| CN(Cc1ccccc1)C(=O)CCC1CCN(S(C)(=O)=O)CC1 | 17.2% |
| COc1ccc(C(CNC(=O)C(C)Oc2ccc(Br)cc2)N2CCOCC2)cc1 (centres unmarked) | -4.41% |
| O=C(NC1CCSC1=O)c1ccc(Cl)cc1 (centres unmarked) | -0.357% |
| CCOC(=O)CSCC(=O)N1N=C(c2cccs2)CC1c1ccc(F)cc1 (centres unmarked) | -34.1% |
| CC1CCC/C(=N\NC(=O)Nc2ccccc2)C1 (centres unmarked) | -9.37% |

| Structure (SMILES) | hERG current change (%, negative = inhibition) at 10uM |
| --- | --- |
| CC(C)CC(=O)NC(=S)Nc1ccccc1C(F)(F)F | -0.604% |
| COC(=O)c1c(C)nc2ccccc2c1-c1ccccc1 | -34% |
| CCN(CCn1cccn1)C(=O)CC1C(=O)NCCN1Cc1ccc(F)cc1 (centres unmarked) | 14.6% |
| COc1cc(N)c(Cl)cc1C(=O)OCC(=O)c1cccs1 | 24.2% |
| O=C(CCCCCCC(=O)c1ccccc1)c1ccccc1 | 18.6% |
| CC(C)C1C(=O)NC(=S)N1S(=O)(=O)c1ccc(C(C)(C)C)cc1 (centres unmarked) | 13.4% |
| COc1ccc(C2=NOC3(CC(=O)N(c4ccc(C)cc4)C3=O)C2)cc1 (centres unmarked) | -3.21% |
| CCn1nccc1C(=O)Nc1ccc(C(=O)OC(C)C)cc1 | 12.9% |
| CCOC(=O)C[C@H]1c2ccc(C(F)(F)F)cc2S(=O)(=O)N1C1CCCC1 | -32% |
| Cc1nc(NCc2ccccc2)sc1C(=O)Nc1ccccc1 | 10.1% |
| O=C(N/N=C/c1ccc(O)c([N+](=O)[O-])c1)C(O)(c1ccccc1)c1ccccc1 | 15.4% |
| COc1cccc(C2=NOC(C(=O)Nc3cccc(C(C)=O)c3)C2)c1 (centres unmarked) | -11.8% |
| O=C(N[C@@H](Cc1ccccc1)C(=O)OCc1ccccc1)c1nc[nH]c1C(=O)NCc1ccccc1 | 0.24% |
| Cc1cccc(OCCC(=O)N(C)CC(=O)Nc2cccc3ccccc23)c1 | -10.3% |
| CC(=O)COc1ccc2c3c(c(=O)oc2c1)CCCC3 | -15.9% |
| CC1(C)O[C@@H]2CC3C4C[C@H](F)C5=CC(=O)C=CC5(C)C4C(O)CC3(C)[C@]2(C(=O)CO)O1 (some centres unmarked) | 1.68% |
| COc1cc(C(C)=O)ccc1OCC(O)CNCC1(N2CCCCC2)CCCCC1.O=C(O)C(=O)O (centres unmarked) | -42.1% |
| Cn1c(=O)cc(N2CCCCC2)[nH]c1=O | 9.92% |
| O=C(C1CCC(CNS(=O)(=O)c2cccs2)CC1)N1CCN(c2ccc(F)cc2)CC1 (centres unmarked) | -29.5% |

| Structure (SMILES) | hERG current change (%, negative = inhibition) at 10uM |
| --- | --- |
| Cc1ccc(CCNC(=O)Cn2ccc3cc(S(=O)(=O)N4CCCC4)ccc32)cc1 | 2.09% |
| Cc1c(NC(=O)CCCN2C(=O)c3cccc4cccc(c34)C2=O)c(=O)n(-c2ccccc2)n1C | -5.07% |
| COC(=O)c1cccc(NC(=O)CSc2nc(=O)cc(N)n2-c2ccccc2)c1 | 12.1% |
| COc1ccc(-c2nc(CC(=O)O)cs2)cc1 | 6.7% |
| CCS(=O)(=O)NC(C)C(c1cccs1)N1CCN(c2ccc(F)cc2)CC1 (centres unmarked) | -8.13% |
| O=C(CN1CCN(c2ccc(F)cc2)CC1)Nc1nccs1 | -1.39% |
| O=C(Nc1ccccc1)O/N=C(\c1ccccc1)c1ccccn1 | -4.87% |
| COc1ccccc1N1CCN(CC(O)COCCOc2ccc(Br)cc2)CC1.Cl (centres unmarked) | -58.8% |
| O=C1OCC(CO)(CO)N=C1NNc1ccccc1Cl | 16.2% |
| COc1ccc(OC)c(C2C(C(=O)c3ccco3)=C(O)C(=O)N2Cc2cccnc2)c1 (centres unmarked) | 16.6% |
| CCOc1cc2c(cc1OCC)-n1cccc1C(c1ccccc1OC)NC2.Cl (centres unmarked) | -7.52% |
| N#CCCNC(=O)CCN1CCOCC1 | 7.79% |
| CC1CCc2nn(CC(=O)N3CCN(C(=O)c4ccco4)CC3)cc2C1 (centres unmarked) | -13% |
| Cc1cccc(NC(=O)CSc2nc3ccccc3nc2N2CCCC2)c1C | -15.2% |
| O=C(NCC1CCCO1)c1ccc(Cn2c(=S)[nH]c3ccccc3c2=O)cc1 (centres unmarked) | 18.2% |
| COc1ccc(N(CC(=O)N2CCN(Cc3ccccc3)CC2)S(C)(=O)=O)cc1Cl | -4.62% |
| CCOC(=O)C1CCCN(C(=O)CN2C(=O)NC(C)(c3ccc4ccccc4c3)C2=O)C1 (centres unmarked) | -15% |
| COc1ccc(CN2CCN(Cc3ccccc3)C(CCO)C2)cc1OC (centres unmarked) | -30.7% |
